Patent US20260174788A1 (priority 2023, published 2026)
Where two headings read alike, the source gives them in different places.

Tested on: HR NMIBC (CIS with or without papillary disease) unresponsive to prior intravesical BCG therapy
Assay type: in vivo, human
[1] = cutoff 4 Apr. 2023, efficacy set
[2] = cutoff 4 Apr. 2023, efficacy set 22 TAR-200, 21 CET
[3] = cutoff 20 Feb. 2023, evaluable set
[4] = cutoff 20 Feb. 2023, evaluable set 19 TAR-200, 18 CET

Substance: cetrelimab: IgG4/K antagonistic anti-PD-1 antibody, heavy chain of SEQ ID NO: 9 and light chain of SEQ ID NO: 10
- 95% CI of CR rate by central review [1]: (18.1%, 61.6%)
- Non-complete response (Non-CR) rate [1]: 61.9%
- Non-evaluable rate [1]: 4.8%
- Non-evaluable, patients [1]: 1
- Complete response (CR) by central review, patients [2]: 8
- Non-complete response (Non-CR), patients [2]: 13
- Overall CR rate by central review [2]: 38.1%
- Responders who had an event (cutoff 20 Feb. 2023): 1
- Median duration of response (cutoff 20 Feb. 2023, approximately 9 months median follow up): not estimable
- 95% CI of CR rate by central review [3]: (13.3%, 59.0%)
- Non-complete response (Non-CR) rate [3]: (66.7%)
- Overall CR rate based on investigator [3]: 44.4% (21.5%, 69.2%)
- Complete response (CR), best overall response by central review, participants [4]: 6
- Non-complete response (Non-CR), participants [4]: 12
- Overall CR rate by central review [4]: 33.3% (13.3%, 59.0%)
- Overall CR rate by central review (cutoff 20 Feb. 2023, evaluable set 19 TAR-200, 18 CET, listed as CET): (33.3%)
